Single values are uncertain, as repeats are few or missing.
Assays:
CHO-K1 [1] = assay: hypodiploid nuclei frequency (% of nucleated events); higher = more hypodiploid events (aneugenic)
CHO-K1 [2] = assay: micronucleus frequency (% of nucleated events); higher = more micronuclei (genotoxic)
CHO-K1 [3] = assay: relative survival (nuclei to bead ratio vs DMSO control) (% of vehicle control); higher = more surviving cells
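For hypodiploid nuclei frequency (% of nucleated events) in this document: hypodiploid nuclei gated on a flow cytometer with 488 nm excitation after SYTOX Green staining, cultures at 37 °C, positive controls vinblastine without S9 and cyclophosphamide with S9.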
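For micronucleus frequency (% of nucleated events) in this document: cells lysed with nuclei stained by SYTOX Green, then micronucleus-gated events counted against nucleated events by flow cytometry with 488 nm excitation.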
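For relative survival (nuclei to bead ratio vs DMSO control) in this document: Lysed-cell nuclei stained with SYTOX Green and counted against counting beads by flow cytometry at 488 nm excitation, with vinblastine (no S9) and cyclophosphamide (plus S9) as positive controls.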

COC(=O)c1ccccc1O [Methyl salicylate]
Details	hypodiploid nuclei frequency, CHO-K1 [1] [%]	micronucleus frequency, CHO-K1 [2] [%]	relative survival, CHO-K1 [3]
concentration: 4.5 (µM), S9 metabolic activation: with S9, exposure time: 3-4 hours	0.28	0.94	102
concentration: 4.5 (µM), S9 metabolic activation: without S9, exposure time: 24 hours	0.6	1.4	103
concentration: 5.63 (µM), S9 metabolic activation: with S9, exposure time: 3-4 hours	0.16	1.18	94.1
concentration: 5.63 (µM), S9 metabolic activation: without S9, exposure time: 24 hours	0.68	1.18	106
concentration: 7.04 (µM), S9 metabolic activation: with S9, exposure time: 3-4 hours	0.12	1.08	93.1
concentration: 7.04 (µM), S9 metabolic activation: without S9, exposure time: 24 hours	0.52	1.3	113
concentration: 8.8 (µM), S9 metabolic activation: with S9, exposure time: 3-4 hours	0.18	1.22	101
concentration: 8.8 (µM), S9 metabolic activation: without S9, exposure time: 24 hours	0.64	1.14	103
concentration: 11 (µM), S9 metabolic activation: with S9, exposure time: 3-4 hours	0.24	0.96	113
concentration: 11 (µM), S9 metabolic activation: without S9, exposure time: 24 hours	0.98	1.94	102
concentration: 13.7 (µM), S9 metabolic activation: with S9, exposure time: 3-4 hours	0.24	0.96	113
concentration: 13.7 (µM), S9 metabolic activation: without S9, exposure time: 24 hours	0.72	1.64	101
concentration: 17.2 (µM), S9 metabolic activation: with S9, exposure time: 3-4 hours	0.24	1.02	115
concentration: 17.2 (µM), S9 metabolic activation: without S9, exposure time: 24 hours	0.7	1.56	113
concentration: 21.5 (µM), S9 metabolic activation: with S9, exposure time: 3-4 hours	0.22	0.7	94.6
concentration: 21.5 (µM), S9 metabolic activation: without S9, exposure time: 24 hours	0.88	2.26	111
concentration: 26.8 (µM), S9 metabolic activation: with S9, exposure time: 3-4 hours	0.28	0.92	110
concentration: 26.8 (µM), S9 metabolic activation: without S9, exposure time: 24 hours	0.68	1.88	111
concentration: 33.6 (µM), S9 metabolic activation: with S9, exposure time: 3-4 hours	0.3	1.18	120
concentration: 33.6 (µM), S9 metabolic activation: without S9, exposure time: 24 hours	0.94	1.96	118
concentration: 41.9 (µM), S9 metabolic activation: with S9, exposure time: 3-4 hours	0.32	1.54	89.4
concentration: 41.9 (µM), S9 metabolic activation: without S9, exposure time: 24 hours	0.74	1.72	93.9
concentration: 52.4 (µM), S9 metabolic activation: with S9, exposure time: 3-4 hours	0.16	1.16	91.8
concentration: 52.4 (µM), S9 metabolic activation: without S9, exposure time: 24 hours	0.84	2.42	134
concentration: 65.5 (µM), S9 metabolic activation: with S9, exposure time: 3-4 hours	0.44	1.3	93.6
concentration: 65.5 (µM), S9 metabolic activation: without S9, exposure time: 24 hours	1.1	2.12	88
concentration: 81.9 (µM), S9 metabolic activation: with S9, exposure time: 3-4 hours	0.26	1.56	93.6
concentration: 81.9 (µM), S9 metabolic activation: without S9, exposure time: 24 hours	1.28	2.92	94.3
concentration: 102 (µM), S9 metabolic activation: with S9, exposure time: 3-4 hours	0.26	1.78	109
concentration: 102 (µM), S9 metabolic activation: without S9, exposure time: 24 hours	1.68	3.52	86.1
concentration: 128 (µM), S9 metabolic activation: with S9, exposure time: 3-4 hours	0.4	2.3	103
concentration: 128 (µM), S9 metabolic activation: without S9, exposure time: 24 hours	1.42	2.04	86.5
concentration: 160 (µM), S9 metabolic activation: with S9, exposure time: 3-4 hours	0.64	2.82	119
concentration: 160 (µM), S9 metabolic activation: without S9, exposure time: 24 hours	1.64	1.86	93.4
concentration: 200 (µM), S9 metabolic activation: with S9, exposure time: 3-4 hours	0.32	1.56	117
concentration: 200 (µM), S9 metabolic activation: without S9, exposure time: 24 hours	1.58	1.94	81.8

C[C@](N)(Cc1ccc(O)c(O)c1)C(=O)O [Methyldopa sesquihydrate]
Details	hypodiploid nuclei frequency, CHO-K1 [1] [%]	micronucleus frequency, CHO-K1 [2] [%]	relative survival, CHO-K1 [3]
concentration: 4.5 (µM), S9 metabolic activation: with S9, exposure time: 3-4 hours	0.38	0.86	104
concentration: 4.5 (µM), S9 metabolic activation: without S9, exposure time: 24 hours	1.14	1.46	117
concentration: 5.63 (µM), S9 metabolic activation: with S9, exposure time: 3-4 hours	0.38	1.04	127
concentration: 5.63 (µM), S9 metabolic activation: without S9, exposure time: 24 hours	1.56	1.64	125
concentration: 7.04 (µM), S9 metabolic activation: with S9, exposure time: 3-4 hours	0.34	1.46	142
concentration: 7.04 (µM), S9 metabolic activation: without S9, exposure time: 24 hours	0.7	1.14	145
concentration: 8.8 (µM), S9 metabolic activation: with S9, exposure time: 3-4 hours	0.24	1.22	114
concentration: 8.8 (µM), S9 metabolic activation: without S9, exposure time: 24 hours	0.92	1.54	139
concentration: 11 (µM), S9 metabolic activation: with S9, exposure time: 3-4 hours	0.34	1.78	117
concentration: 11 (µM), S9 metabolic activation: without S9, exposure time: 24 hours	0.7	1.68	117
concentration: 13.7 (µM), S9 metabolic activation: with S9, exposure time: 3-4 hours	0.2	1.84	124
concentration: 13.7 (µM), S9 metabolic activation: without S9, exposure time: 24 hours	1.12	1.88	126
concentration: 17.2 (µM), S9 metabolic activation: with S9, exposure time: 3-4 hours	0.4	1.76	110
concentration: 17.2 (µM), S9 metabolic activation: without S9, exposure time: 24 hours	0.66	2.26	153
concentration: 21.5 (µM), S9 metabolic activation: with S9, exposure time: 3-4 hours	0.24	1.2	111
concentration: 21.5 (µM), S9 metabolic activation: without S9, exposure time: 24 hours	0.62	1.64	127
concentration: 26.8 (µM), S9 metabolic activation: with S9, exposure time: 3-4 hours	0.24	0.68	124
concentration: 26.8 (µM), S9 metabolic activation: without S9, exposure time: 24 hours	0.8	1.24	137
concentration: 33.6 (µM), S9 metabolic activation: with S9, exposure time: 3-4 hours	0.24	0.76	137
concentration: 33.6 (µM), S9 metabolic activation: without S9, exposure time: 24 hours	0.94	1.98	128
concentration: 41.9 (µM), S9 metabolic activation: with S9, exposure time: 3-4 hours	0.2	1.16	98.1
concentration: 41.9 (µM), S9 metabolic activation: without S9, exposure time: 24 hours	0.84	1.6	122
concentration: 52.4 (µM), S9 metabolic activation: with S9, exposure time: 3-4 hours	0.22	0.72	124
concentration: 52.4 (µM), S9 metabolic activation: without S9, exposure time: 24 hours	0.94	1.7	139
concentration: 65.5 (µM), S9 metabolic activation: with S9, exposure time: 3-4 hours	0.26	0.78	123
concentration: 65.5 (µM), S9 metabolic activation: without S9, exposure time: 24 hours	0.9	1.64	146
concentration: 81.9 (µM), S9 metabolic activation: with S9, exposure time: 3-4 hours	0.22	1.2	114
concentration: 81.9 (µM), S9 metabolic activation: without S9, exposure time: 24 hours	0.72	1.5	158
concentration: 102 (µM), S9 metabolic activation: with S9, exposure time: 3-4 hours	0.2	0.92	130
concentration: 102 (µM), S9 metabolic activation: without S9, exposure time: 24 hours	0.98	1.8	122
concentration: 128 (µM), S9 metabolic activation: with S9, exposure time: 3-4 hours	0.2	0.98	129
concentration: 128 (µM), S9 metabolic activation: without S9, exposure time: 24 hours	1.2	1.8	129
concentration: 160 (µM), S9 metabolic activation: with S9, exposure time: 3-4 hours	0.2	0.92	125
concentration: 160 (µM), S9 metabolic activation: without S9, exposure time: 24 hours	0.92	1.66	106
concentration: 200 (µM), S9 metabolic activation: with S9, exposure time: 3-4 hours	0.08	0.98	112
concentration: 200 (µM), S9 metabolic activation: without S9, exposure time: 24 hours	1.18	1.64	89.9

COC(=O)c1ccc(O)cc1 [Methylparaben]
Details	hypodiploid nuclei frequency, CHO-K1 [1] [%]	micronucleus frequency, CHO-K1 [2] [%]	relative survival, CHO-K1 [3]
concentration: 4.5 (µM), S9 metabolic activation: with S9, exposure time: 3-4 hours	0.46	1.46	93.1
concentration: 4.5 (µM), S9 metabolic activation: without S9, exposure time: 24 hours	0.48	1.42	113
concentration: 5.63 (µM), S9 metabolic activation: with S9, exposure time: 3-4 hours	0.4	1.5	84.8
concentration: 5.63 (µM), S9 metabolic activation: without S9, exposure time: 24 hours	0.6	1.8	90.7
concentration: 7.04 (µM), S9 metabolic activation: with S9, exposure time: 3-4 hours	0.32	1.7	98.8
concentration: 7.04 (µM), S9 metabolic activation: without S9, exposure time: 24 hours	0.5	1.34	114
concentration: 8.8 (µM), S9 metabolic activation: with S9, exposure time: 3-4 hours	0.24	1.36	115
concentration: 8.8 (µM), S9 metabolic activation: without S9, exposure time: 24 hours	0.52	1.26	107
concentration: 11 (µM), S9 metabolic activation: with S9, exposure time: 3-4 hours	0.4	1.96	123
concentration: 11 (µM), S9 metabolic activation: without S9, exposure time: 24 hours	0.68	1.4	107
concentration: 13.7 (µM), S9 metabolic activation: with S9, exposure time: 3-4 hours	0.34	1.04	109
concentration: 13.7 (µM), S9 metabolic activation: without S9, exposure time: 24 hours	0.44	1.24	109
concentration: 17.2 (µM), S9 metabolic activation: with S9, exposure time: 3-4 hours	0.22	1.5	143
concentration: 17.2 (µM), S9 metabolic activation: without S9, exposure time: 24 hours	0.4	1.22	106
concentration: 21.5 (µM), S9 metabolic activation: with S9, exposure time: 3-4 hours	0.3	1.42	121
concentration: 21.5 (µM), S9 metabolic activation: without S9, exposure time: 24 hours	0.64	1.1	100
concentration: 26.8 (µM), S9 metabolic activation: with S9, exposure time: 3-4 hours	0.48	1.16	88.5
concentration: 26.8 (µM), S9 metabolic activation: without S9, exposure time: 24 hours	0.64	1.42	90.7
concentration: 33.6 (µM), S9 metabolic activation: with S9, exposure time: 3-4 hours	0.42	1.22	85.5
concentration: 33.6 (µM), S9 metabolic activation: without S9, exposure time: 24 hours	0.44	1.34	93.6
concentration: 41.9 (µM), S9 metabolic activation: with S9, exposure time: 3-4 hours	0.52	1.12	77.1
concentration: 41.9 (µM), S9 metabolic activation: without S9, exposure time: 24 hours	0.32	1.66	92.6
concentration: 52.4 (µM), S9 metabolic activation: with S9, exposure time: 3-4 hours	0.34	1.32	89.5
concentration: 52.4 (µM), S9 metabolic activation: without S9, exposure time: 24 hours	0.72	1.66	89
concentration: 65.5 (µM), S9 metabolic activation: with S9, exposure time: 3-4 hours	0.28	1.86	87.3
concentration: 65.5 (µM), S9 metabolic activation: without S9, exposure time: 24 hours	0.44	1.68	82.8
concentration: 81.9 (µM), S9 metabolic activation: with S9, exposure time: 3-4 hours	0.34	1.7	83.7
concentration: 81.9 (µM), S9 metabolic activation: without S9, exposure time: 24 hours	0.74	1.94	88.1
concentration: 102 (µM), S9 metabolic activation: with S9, exposure time: 3-4 hours	0.46	1	85.7
concentration: 102 (µM), S9 metabolic activation: without S9, exposure time: 24 hours	0.72	1.66	99.8
concentration: 128 (µM), S9 metabolic activation: with S9, exposure time: 3-4 hours	0.3	1.14	91
concentration: 128 (µM), S9 metabolic activation: without S9, exposure time: 24 hours	0.92	1.9	91.7
concentration: 160 (µM), S9 metabolic activation: with S9, exposure time: 3-4 hours	0.28	1.48	91.3
concentration: 160 (µM), S9 metabolic activation: without S9, exposure time: 24 hours	1.02	1.68	89
concentration: 200 (µM), S9 metabolic activation: with S9, exposure time: 3-4 hours	0.16	1.66	89.5
concentration: 200 (µM), S9 metabolic activation: without S9, exposure time: 24 hours	1.02	2.04	104

Source: the supplement of paper PMC9151546
